Results as given in PubChem BioAssay AID1346428 (National Center for Advancing Translational Sciences (NCATS), 2018).
Values joined by “and” are separate entries in the source; they are usually repeats but may differ in a detail not shown here. Identical values can stand only once. The campaign covered roughly 48,000 compounds. About 1,200 (2.5%) were called active. Roughly 2% stayed inconclusive and do not appear here.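 How the source made its calls: active means activation of at least 60% and not above a set upper limit (about 1 call in 100 departs from these limits); inconclusive means activation of 40% to 60%, or above that upper limit; inactive means activation under 40%.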 This is one part of the list.

Molecular target: Probable G-protein coupled receptor 32 (Homo sapiens) (UniProt O75388)
Assay: qHTS for Agonists of Human Resolvin D1 Receptor DRV1; further: 0% is about no effect
Conditions: CHO-K1 GPR32 beta-arrestin PathHunter luminescence, 90 min; at 76.9 µM; active compounds read high; zero percent set by DMSO-only wells
Procedure, shortened: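 Luminescent readout of beta-Gal complementation quantifies ligand-induced beta-arrestin association with GPR32 in CHO-K1 cells; 90 min compound incubation at 37 °C, detection 1 h at room temperature.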

Chain of UniProt O75388 (O75388 whole entry, looked up): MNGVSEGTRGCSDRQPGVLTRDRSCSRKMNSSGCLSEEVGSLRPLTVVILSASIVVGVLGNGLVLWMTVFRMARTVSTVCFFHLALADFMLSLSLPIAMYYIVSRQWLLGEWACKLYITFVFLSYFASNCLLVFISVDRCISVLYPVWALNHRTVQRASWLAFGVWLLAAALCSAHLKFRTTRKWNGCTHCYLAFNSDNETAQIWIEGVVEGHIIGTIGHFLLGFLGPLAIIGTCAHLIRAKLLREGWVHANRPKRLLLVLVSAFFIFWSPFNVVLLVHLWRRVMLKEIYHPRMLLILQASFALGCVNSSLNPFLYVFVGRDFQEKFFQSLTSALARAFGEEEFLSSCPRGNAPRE

activation, inactive:
Cc1nn(CCCC(=O)NCc2ccc(F)cc2)c(=O)c2c1sc1ccccc12 -12.9%
COc1c(C)cc(S(=O)(=O)NCCc2c(C)[nH]c3ccccc23)c(C)c1C 21.8%
CCOC(=O)c1cc(-c2ccccc2)n(-c2cccc(C(=O)Nc3ccc(F)c(F)c3)c2)c1C -12.4%
COc1ccccc1CNC(=O)CCn1c(=O)c2ccccc2n(CC(=O)Nc2cccc(Cl)c2)c1=O 9.35%
Cc1c(NC(=O)c2cc(-c3ccc(Cl)c(Cl)c3)on2)c(=O)n(-c2ccccc2)n1C 10.9%
CCOc1ccc(S(=O)(=O)NCC(c2ccco2)S(=O)(=O)c2cccs2)cc1 (configuration not stated) -19.1%
CCOc1ccc(-c2cc(NC(=O)Nc3cccc(C(C)=O)c3)c(C(=O)OC)s2)cc1 -2.86%
CCOC(=O)c1ccc(NC(=O)CCCc2nc(-c3ccccc3Cl)no2)cc1 -0.772%
CCN(CC)CCCC(C)Nc1c2ccc(Cl)cc2nc2ccc(OC)cc12 (configuration not stated) 44.6% and 11.3%
COc1ccc(N2CCN(C(=O)CCc3c(C)nn(-c4ccc(N5CCCC5)nn4)c3C)CC2)cc1 -21.7%
Cc1ccc(NC(=O)Nc2nnc(N(CC(C)C)CC(C)C)s2)cc1Cl -21.1%
COc1ccc(OC)c(NC(=O)C2CCCN(S(=O)(=O)c3c(C)nn(C)c3C)C2)c1 (configuration not stated) -20.5%
Cc1ccc(NC(=O)c2cnn3c(C(F)F)cc(-c4ccccc4)nc23)c(C)c1 -3.02%
O=C(O)c1ccc2c(c1)ncn2-c1ccc(F)c(F)c1 -1.33%
COc1cccc(N2CCN(C(=O)C(CCSC)NS(=O)(=O)c3ccc4c(c3)oc(=O)n4C)CC2)c1 (configuration not stated) -14.5%
CCc1ccc(CNC(=O)Cc2ccc(NC(=O)N3CCSc4ncccc43)cc2)cc1 32.3%
COc1ccc(NC(=O)C2=C(C)Nc3ncnn3C2c2ccc(O)cc2)cc1 (configuration not stated) -2.46%
O=C(Nc1ccc(Cl)cc1)C1CCN(c2nc3ccccc3nc2C(F)(F)F)CC1 9.21%
O=C(NCC(c1cccnc1)N1CCc2ccccc2C1)c1ccc(F)c(F)c1 (configuration not stated) -13.5%
O=C(NC1CC1)c1ccc(Cn2c(SCc3cccc(F)c3)nc3cccnc32)cc1 -11.3%
COc1ccccc1N1CCN(C(=O)c2ccc(CS(=O)c3ccccc3C)o2)CC1 (configuration not stated) 3.19%
COc1ccc(CCN2C(=O)c3oc4cc(C)cc(C)c4c(=O)c3C2c2ccc(F)cc2)cc1OC (configuration not stated) -4.27%
Cn1cc(S(=O)(=O)c2cccc(Cl)c2)c(=O)c2cc(F)c(N3CCCCCC3)cc21 -10.5%
CCS(=O)(=O)N1CCc2cc(C(=O)NCc3ccc(OC)cc3)ccc21 6.1%
O=C(O)P(=O)(O)O -0.518%
CCC(CC)C(=O)Nc1ccc(OCc2cc(=O)n3c4c(sc3n2)CCCC4)cc1 18.3%
Cc1ccc(C(=O)N2CCc3cc(CNS(=O)(=O)c4ccc(Cl)s4)ccc32)cc1 9.77%
Cc1ccc(C)c(N2CCN(C(=O)C3CCN(c4nc(-c5ccc(C(C)C)cc5)no4)CC3)CC2)c1 -17.7%
CCOc1ccc(NC(=O)c2ccc3c(SCC(=O)O)c4c(nc3c2)CCCC4)cc1 4.18%
O=C(CN1CCN(S(=O)(=O)c2cc(Cl)ccc2Cl)CC1)Nc1cccc(F)c1 2.4%
Cn1cc(S(=O)(=O)c2ccc(Cl)cc2)c(=O)c2cc(F)c(N3CCCCCC3)cc21 -10.9%
O=C(Nc1ccc(NC(=O)c2cc3ccccc3o2)cc1)c1ccccc1 1.89%
CCOC(=O)C1CCCN(C(=O)c2ccc3c(c2)N(Cc2ccccc2)C(=O)c2ccccc2S3(=O)=O)C1 (configuration not stated) -27.8%
CC1=C(C(=O)Nc2ccc(C)cc2C)C(c2ccccc2[N+](=O)[O-])n2ncc(C(=O)Nc3ccccc3)c2N1 (configuration not stated) -33.2%
Fc1ccc(-c2nc(Nc3ccc(F)c(Cl)c3)nc3c2COc2ccccc2-3)cc1 -2.12%
CC(C(=O)Nc1cccc(C#N)c1)n1nc(-c2ccccc2)c2c(c1=O)CCCC2 (configuration not stated) 31.6%
CCOC(=O)c1ccccc1NC(=O)Cn1cc(C(=O)c2cccc(OC)c2)c(=O)c2ccc(C)nc21 -16.2%
CCCCCCCCCCCCCCCC[N+](C)(C)CCN(Cc1ccc(OC)cc1)c1ncccn1 -47.5%
CCOC(=O)c1c(C)[nH]c(CCC(=O)NCCCN2CCN(c3ccc(F)cc3)CC2)c1C -13.1%
CC(C)c1ccc(NC(=O)c2cc3c(s2)-c2ccccc2SC3)cc1 -18.2%
Cc1ccc(CCNC(=O)c2ccc3c(c2)N(Cc2cccc(C)c2)C(=O)c2ccccc2S3(=O)=O)cc1 -4.83%
Cc1cccc(-c2nc(S(=O)(=O)c3ccc(F)cc3)c(N3CCN(c4ccccc4)CC3)o2)c1 3.36%
O=C(CN1C(=O)COc2ccc(S(=O)(=O)N3CCCCCC3)cc21)NCc1ccc(Cl)cc1 -15%
Cc1cc(=O)[nH]c2nnc(SCC(=O)NC(C)(C)C)n12 3.9%
COc1cc2c(cc1OC)C(COc1ccccc1OC)N(C(=O)CC(C)C)CC2 (configuration not stated) 11.1%
COc1ccc(Cl)cc1Nc1sc(C(=O)c2ccccc2)c(N)c1C(=O)Nc1ccccc1 -97.1%
CCc1ccc(-c2cn3c(n2)sc2cc(C(=O)NC4CCCCCC4)ccc23)cc1 -9.54%
CCc1c(C)sc2c1CCN(Cc1cccc(F)c1)C2c1ccccc1 (configuration not stated) 32.2%
CC(=O)N1CCc2cc(CNS(=O)(=O)c3ccc(F)cc3)ccc21 -4.21%
COCCc1nn2c(=O)cc(COC(=O)c3ccc4c(c3)OCO4)nc2s1 -18.9%
Cc1ccc(-c2cc(C(=O)NCc3cnn(C)c3C)c3cc(Br)ccc3n2)cc1 -15.4%
Cc1ccc(S(=O)(=O)c2nc(-c3ccccc3F)oc2N2CCCCC2)cc1 -20.3%
